The list shows a part of the results.

The assay addresses T1, OsWOX13 (Oryza sativa, UniProt Q5QMM3 1-267).
T1 sequence: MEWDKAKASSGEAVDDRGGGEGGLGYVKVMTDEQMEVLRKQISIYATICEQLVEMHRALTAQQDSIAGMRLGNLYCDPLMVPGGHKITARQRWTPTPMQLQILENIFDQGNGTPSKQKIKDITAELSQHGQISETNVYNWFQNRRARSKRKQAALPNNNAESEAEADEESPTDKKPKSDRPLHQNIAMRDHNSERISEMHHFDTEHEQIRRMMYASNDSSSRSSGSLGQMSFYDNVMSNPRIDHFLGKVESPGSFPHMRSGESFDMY
The assay is described as follows: protein-binding microarray (RPBM); PBS, 2% BSA, 51.3 ng/ul salmon testes DNA, 50 uM zinc acetate, 200 nM TF, 25 C, 1 h; high values mean tight binding. The note with it: protein: recombinant; tags: N-terminal polyhistidine and DsRed monomer fusion (pET32a); label: CyDye5-dUTP incorporated in the synthesized complementary strand; 3' TTTTT single-stranded linker to array surface; dsDNA, one strand shown. The procedure, abridged:
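Transcription factors, each fused N-terminally to a polyhistidine tag and DsRed, were expressed in E. coli BL21-CodonPlus and purified on Ni–NTA. A custom Agilent array was made double-stranded by primer extension with Cy5-dUTP and blocked with 2% BSA. It was incubated with 200 nM protein in PBS, 2% BSA, salmon testes DNA and 50 µM zinc acetate at 25 °C for 1 h, then washed. The binding signal is per-feature fluorescence intensity (arbitrary units) read on an Axon 4000B scanner.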
In the case of “GGATGAGTCATTGATTGGGCTAATCTATATCTATACTAATCGGAGTCACCTAGTGCAG”, the binding signal was 27400 fluorescence intensity (a.u.). On to “TTTTGAATAGGAAATCATTTATATGTGTTTCCTTAATTTGCGGAGTCACCTAGTGCAG”, for which the binding signal is 3290 fluorescence intensity (a.u.). The result for “CAGTTAATTTACTTGTGACGTATCGCTGGGAAGTTAATTTCGGAGTCACCTAGTGCAG” reads 12600 fluorescence intensity (a.u.). The result for “AAACCCAATCCAATCAAGCGGAGCTCGAGCTCCAATCCAGCGGAGTCACCTAGTGCAG” reads 3780 fluorescence intensity (a.u.). For “TCATATTACTGTCTTAATTAATTCATCATGCTGCTGACAGCGGAGTCACCTAGTGCAG”, the binding signal is 18500 fluorescence intensity (a.u.). The result for “AATATATGGATAATTGTACTAGATTATCCTATTTCATACACGGAGTCACCTAGTGCAG” reads 6460 fluorescence intensity (a.u.); that for “ATAGACTAGATTAATAGTAAACCATCTCAATAGTATGTCTCGGAGTCACCTAGTGCAG”, 13600 fluorescence intensity (a.u.); that for “ACATGCATAATTATCTTTAATTATTTATGAACATATATAGCGGAGTCACCTAGTGCAG”, 37900 fluorescence intensity (a.u.). Under “TTGAATTTAAATTTAAACGTATAGTGCCTTCCCTTTTACGCGGAGTCACCTAGTGCAG” stands 22900 fluorescence intensity (a.u.); under “TCAAATTGAAAGTTTCCAAAATTTTCAAATCTGGACTTGACGGAGTCACCTAGTGCAG”, 24600 fluorescence intensity (a.u.). Turning to “TGCAGTGATAATTTAGGATTATTTAAGATTTGCACAGTGGCGGAGTCACCTAGTGCAG”, the binding signal is 12500 fluorescence intensity (a.u.). With “GTCCAAAACGTCAATTATTATAGAACCGGAGGAGTATACGCGGAGTCACCTAGTGCAG”, the binding signal is 5860 fluorescence intensity (a.u.).

For the sequence “AATTAATTAGGCTCAAAAGATTCGCCTCGCGATTTCCAGACGGAGTCACCTAGTGCAG”, the binding signal is 22200 fluorescence intensity (a.u.).

On to “AATCTAGTAAATTAGTTATAAAATGAAAGGGCGTTGCATTCGGAGTCACCTAGTGCAG”, for which the binding signal is 3380 fluorescence intensity (a.u.). With “CAGCCGTTCAAATTAACATTTCAATTCAATGATTTTGCCCCGGAGTCACCTAGTGCAG”, the binding signal is 4190 fluorescence intensity (a.u.). For “AGTATTTGATTAGGCACTACCTAATATTATAAATCTACATCGGAGTCACCTAGTGCAG”, the binding signal is 17400 fluorescence intensity (a.u.).

Consider “TTTGAAATTATTATTTATTTTATTGGTGACTTACTTTATTCGGAGTCACCTAGTGCAG”, for which the binding signal is 4390 fluorescence intensity (a.u.).

In the case of “CGGCAGATAGATAGCAATTCCGTTAAGAATTTCTTGTTTGCGGAGTCACCTAGTGCAG”, the binding signal was 7940 fluorescence intensity (a.u.). As for “GTAATTAAACTAAATAAGTGCTATAAGTGTTGCTATATTACGGAGTCACCTAGTGCAG”, the binding signal is 4340 fluorescence intensity (a.u.). Under “TAATCTAAATTATTAAATCAGATTACTCTAAACTGGATTACGGAGTCACCTAGTGCAG” stands 18300 fluorescence intensity (a.u.); under “ACTTTGCCTAGATTCTAATTAATTTAAAGAATAAATTTGTCGGAGTCACCTAGTGCAG”, 6990 fluorescence intensity (a.u.); under “TAGTTGATTAATAGGATTTGTATTGTAAGTGTGATACTGCCGGAGTCACCTAGTGCAG”, 42400 fluorescence intensity (a.u.). As to “AAAGTACAAATTAAATTAACAAGGATATCGATCAAAGTATCGGAGTCACCTAGTGCAG”, the binding signal is 5100 fluorescence intensity (a.u.).

Turning to “AGCCTCAAGGTAGAATCTGATTGAAACGTCTTCACAAGACCGGAGTCACCTAGTGCAG”, the binding signal was 8980 fluorescence intensity (a.u.). For “GGATTTGATATGATGATCAGCTTCGGTATTGTATAGATATCGGAGTCACCTAGTGCAG”, the binding signal is 4250 fluorescence intensity (a.u.). The result for “CGAGCCCACTCCATCCCTTCCCCAGATCGCTCCTTCCCCTCGGAGTCACCTAGTGCAG” reads 6240 fluorescence intensity (a.u.); that for “AATTTCAGTTATTTCCTAATTGTATTTCTATGGACTCTATCGGAGTCACCTAGTGCAG”, 5780 fluorescence intensity (a.u.). The result for “CGTAATTAGGCTCAAAAGATTCGTCTCGCAATTTATATGCCGGAGTCACCTAGTGCAG” reads 20100 fluorescence intensity (a.u.); that for “TATATGAACACACATTGATTATGTATTTGGACAACATGTACGGAGTCACCTAGTGCAG”, 3750 fluorescence intensity (a.u.); that for “CCAATGTCAATTATTCGAGAACGGAGGGAGTATTTGGACTCGGAGTCACCTAGTGCAG”, 5230 fluorescence intensity (a.u.). Under “GAACAAACAGGCTGCCAATAACTGGTCCTGCCCCACGGCCCGGAGTCACCTAGTGCAG” stands 3460 fluorescence intensity (a.u.); under “TGCATACTCTGATTGTACATTCATGTCCATACAGGGGAGTCGGAGTCACCTAGTGCAG”, 3170 fluorescence intensity (a.u.); under “TTGACTTTTGATTATTCTTCTCGTTGCAAATATAAACTGCCGGAGTCACCTAGTGCAG”, 5970 fluorescence intensity (a.u.). Consider “GAGTCCGATAGATTACCAGATTTGCCCTTTGTACTGCTTACGGAGTCACCTAGTGCAG”, for which the binding signal is 5030 fluorescence intensity (a.u.). Under “TTTCATTTAAATTATCAATTTAATTATAGAGATAAATTAACGGAGTCACCTAGTGCAG” stands 20300 fluorescence intensity (a.u.); under “TAAGGGTTAATTGGGCCGAAGAAAGGCGTCGGGTGTTAAGCGGAGTCACCTAGTGCAG”, 8950 fluorescence intensity (a.u.).

Take “GGGAATTTGTGATTTGTAGTAGTATATATATTTAAATTTGCGGAGTCACCTAGTGCAG”: the binding signal was 24000 fluorescence intensity (a.u.).

“TAATAACAAATTGGATATACAAGAACATAAAACTTGGTACCGGAGTCACCTAGTGCAG”: the binding signal is 8860 fluorescence intensity (a.u.).

As for “AAGAAAGAGTGATTATCTCACCATTTGACTTACCAAGCCTCGGAGTCACCTAGTGCAG”, the binding signal was 3250 fluorescence intensity (a.u.). The result for “TGCCGTTTTGTAATTGAATTGCTTGTTAATTCATGTTCAACGGAGTCACCTAGTGCAG” reads 7350 fluorescence intensity (a.u.); that for “TTCCCGCGTTTAATTAGTACGTATCACCTCTCATGCATTTCGGAGTCACCTAGTGCAG”, 8190 fluorescence intensity (a.u.); that for “TATGATTGTGGCGCCATTGACGTTTACGATATCCTGTGAACGGAGTCACCTAGTGCAG”, 23700 fluorescence intensity (a.u.).

As to “TCCTGAAGATGACTGGAACATGACTGTGGATCTGCATAAACGGAGTCACCTAGTGCAG”, the binding signal is 6160 fluorescence intensity (a.u.). On to “AATTAATTAATTAACCATATGTACTTCACACATATATTAACGGAGTCACCTAGTGCAG”, for which the binding signal was 28400 fluorescence intensity (a.u.).

As to “AATTGGCAATAAATTAGATGTCACTAGAGTAAATTAGTAGCGGAGTCACCTAGTGCAG”, the binding signal was 8860 fluorescence intensity (a.u.).

Turning to “AAGGAGCTGATTTGCACCGATTTATGAAGTACCTAGTTTTCGGAGTCACCTAGTGCAG”, the binding signal was 3980 fluorescence intensity (a.u.). On to “TCAGTACCTCTAATTGGCCCGTTGGCTTTTGTTTCAGAAACGGAGTCACCTAGTGCAG”, for which the binding signal was 3730 fluorescence intensity (a.u.). The result for “TTGTCAAATTATGGTACAATTAGGCTTAAAAGATTCATATCGGAGTCACCTAGTGCAG” reads 3790 fluorescence intensity (a.u.); that for “ACTTGTATTTACGGCTAATTATATTTTCAGTGATAGGCGACGGAGTCACCTAGTGCAG”, 14100 fluorescence intensity (a.u.). Regarding “CTTGATTTCGTTGTTTCGTTTTGCGTGCAATGGGGAAGTGCGGAGTCACCTAGTGCAG”, the binding signal is 11300 fluorescence intensity (a.u.).

With “ACAAGTAATCAAAGACGGCATGACACGTAGCTTTCTAGACCGGAGTCACCTAGTGCAG”, the binding signal was 3980 fluorescence intensity (a.u.). For “AGACGATCTCATGACATTAATTTGACCATCATTAGGCCTACGGAGTCACCTAGTGCAG”, the binding signal was 3840 fluorescence intensity (a.u.). In the case of “GGCAATCTTCTGATTACCGGCGGCTGCAGTGTTTTCTGATCGGAGTCACCTAGTGCAG”, the binding signal is 3870 fluorescence intensity (a.u.). For “TCAATTATAAATTTAATGAAACTATGCAAATATTACTACTCGGAGTCACCTAGTGCAG”, the binding signal was 14000 fluorescence intensity (a.u.).

The record behind these values is publication PMC7819943, “Rice protein-binding microarrays: a tool to detect cis-acting elements near promoter regions in rice”.
